# In the supplement of paper PMC11417369:
# ± gives the standard deviation of the averaged measurements. The list shows a part of the results.
# Test system: PfAP2-EXP AP2 domain (GST-tagged)
# Experiment: gcPBM binding intensity (ln(normalized median fluorescence intensity)); higher = stronger DNA binding
# Method in brief: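 Probes on an Agilent 4 × 180k array were primer-extended, double-stranded and 36 bp long, taken from intergenic genomic regions, with negative controls added. GST-tagged P. falciparum DNA-binding domains from E. coli, about 25 μg on average, were applied to the array for 1 h in 1× PBS containing 1% milk, 0.2 mg/ml BSA, 0.5% salmon testes DNA and 0.03% Triton X-100. Binding intensity, obtained after Alexa488 anti-GST antibody detection and a 488 nm scan, is the highest Masliner-normalised natural-log median intensity across replicate spots of either probe orientation.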
row,Sequence,gcPBM binding intensity (ln)
1,AAAATATTTATTTTTTGTACACATAAAAACGCACTT [XGTACX_site4132],8.62 ± 0.11
2,ATATGTCCATATAGTAAATGTTACATTTTAAAGCGC [XGTACX_negctrl_site168],8.59 ± 0.32
3,ATTCTTAAAAAATAAGTGCAAAATAATTAAATAAAT,8.94 ± 0.071
4,AGAATGGTTTATAAAGGTACGTAATTTTTAATTTTA [XGTACX_site383],8.2 ± 0.38
5,TAAAAAAATTATATTTGTACATATTAATATAGCCTT [XGTACX_site4833],8.33 ± 0.37
6,AAACGTATTCTATAAAGTACATTATTATAGTAGACC [XGTACX_site8068],8.53 ± 0.37
7,TATTGAATAAAATGCACACGCATGCGTTATTTATTA [CACACA_site3479],8.96 ± 0.18
8,AAAATGTAATATTGGGTGCACAATAAGTTTGATGTC,9.565 ± 0.021
9,TAGTATTAAATATATACACACATATATACCTATAGA [CACACA_site5219],8.44 ± 0.38
10,TGAAAAGATAAAAAAAGTACACACACACATATATAT [XGTACX_site6504],9.02 ± 0.45
11,TTTAGTGTTATAAAAAGTACATAATAATTCCTTTTC [XGTACX_site3208],8.08 ± 0.028
12,TTATAAATAATGAGAAACATTAAATTTAATCATAAA [CACACA_negctrl_site523],8.21 ± 0.4
13,AAAAATTCAATAGGACGTACTAAAACATTCATTAAT [XGTACX_site1712],8.7 ± 0.48
14,TACTATATATATATATATATATATATATATATTTAT [GTGCAC_negctrl_site593],8.7 ± 0.071
15,GCTTATATTAATAAGGTGCTTTTTATTTCGTGTGTA [GTGCAC_site9649],8.61 ± 0.36
16,TTATATAAAGAATGTACACACAGAAATGCACAGACA [CACACA_site5288],8.9 ± 0.32
17,AATATGTACAGACATACACACATATTTATATTTATA [CACACA_site6694],8.49 ± 0.36
18,TCATAGTATAAACACACACACACACCCATATATATA [CACACA_site8512],8.93 ± 0.29
19,TAAATATATAAATACACACACACCAAAGCAATAGAT [CACACA_site5605],9.05 ± 0.61
20,TCCATATGCATGTATTGTACTGTAATATATTAAAAA [XGTACX_site472],8.89 ± 0.27
21,AGCAGTCGACAGGACAGTACACAGTAGCCAGGAAAT [XGTACX_site4929],8.88 ± 0.72
22,AAAAAAAAAAAAGAAACACACACATATATATATATA [CACACA_site8525],10.1 ± 0.31
23,ATTATTAAAAATATGGGTACATATTATTGTTATATA [XGTACX_site1958],8.32 ± 0.2

row,Sequence,gcPBM binding intensity (ln)
1,TGAATATAACAAATATGTACTTAAAATTGTTATATT [XGTACX_site5679],8.38 ± 0.24
2,CACACTTGCTCCTGTTGTACATAACCATAAGCAACA [XGTACX_site2102],8.85 ± 0.34
3,AAACTTTACATTACTTGTACATATATTCTATATAAT [XGTACX_site8640],8.78 ± 0.37
4,TAAAGAAATAAATACATACACACATATATATATATA [CACACA_site3363],10.2 ± 0.5
5,TTATATTTTACAAATGCACACATAATTTTTTTTTTT [CACACA_site8890],8.38 ± 0.19
6,AAAAAAAAAAAAAAATGTACATGACATGACATGACA [XGTACX_site4020],8.49 ± 0.4
7,TTTGATAATAAGATATAATACTTAAATATATATATA [GTGCAC_negctrl_site339],9.36 ± 0.12
8,AAATATATATTCAAAAGTACACAATTTGTTAATAAT [XGTACX_site8917],8.59 ± 0.33
9,TATTTTACGCGGTTTATAATGACATGTTCTATATTT [CACACA_negctrl_site1184],8.9 ± 0.51
10,AGCCCTTTTTTTTTTTAGAATATTGCATAATTATAT [XGTACX_negctrl_site546],8.55 ± 0.35
11,GTATTGTATGGATGGGGTACTATATATATATATTTT [XGTACX_site1694],9.51 ± 0.62
12,TATATAAATATATCCACACACATACCTATATTAATA [CACACA_site6184],8.36 ± 0.47
13,TTTATATGTTTTAAGTGTACACATATAATGTATTTT [XGTACX_site3069],8.7 ± 0.23
14,TTATAATTAAATTTCACACAGTTCATAACATAATTA [CACACA_site5501],8.29 ± 0.39
15,TAAGGGAGAGATTTGTATCATAAGCAACTTTCAAAA [CACACA_negctrl_site1436],8.37 ± 0.32
16,ACTTTCAACATGAAGTTGCACTTTTTTTTTTTTCTT,8.6 ± 0.43
17,TAATTAAATAAAAAAAAATATATATATATATATATA [XGTACX_negctrl_site616],10.12 ± 0.085
18,TTTTTTAAAAATAACTGTACAGAGGCTGTTAGGATA [XGTACX_site2521],9.05 ± 0.33
19,AGACAATATTAATAAGGTACACATATATATTAAAAA [XGTACX_site6709],8.61 ± 0.38
20,TATAATTTTTTTGAATTATATATATATATATATAAT [XGTACX_negctrl_site26],8.27 ± 0.17
21,TGATATAAAATTAAAGTGCAAAAAAAAAATAAAAAA,8.65 ± 0.34
22,ATAATATTATGAACCTGTACATAATTTTTCTTTTCT [XGTACX_site3377],8.22 ± 0.31
23,AGTATATTTCTAACTTGTACGAAATTAATAATTTAT [XGTACX_site6635],8.52 ± 0.54

row,Sequence,gcPBM binding intensity (ln)
1,TATATATAATATGAATGTACACAAAAAGGTAATACA [XGTACX_site6202],8.99 ± 0.41
2,AAAAAAAAGAAATAGACACACATATATTTTTAAACA [CACACA_site3954],8.28 ± 0.46
3,GATGAGGACAGACACACACACATAAGTTGATACATA [CACACA_site7580],8.71 ± 0.54
4,CATTTTATAAAAACAAGTACCCAACATATATATAAT [XGTACX_site5955],8.77 ± 0.55
5,AGACATATTCTTTTTACACACTTGAATAAAAAATAT [CACACA_site1205],8.37 ± 0.37
6,TTTTTTTCTTAAAGATGTACTTTTTAAAAACAATCT [XGTACX_site986],8.58 ± 0.23
7,GTTTTTACTTTTATCTGTACATAATACTACCAATAT [XGTACX_site5414],9.02 ± 0.34
8,TGCCTATGACATGAATGTACATTAAAATTAAATAAA [XGTACX_site7126],8.46 ± 0.45
9,CTGTACACTTAAACGGTGCAAAAAGAAAAAAAAGAA,9.155 ± 0.035
10,CACGCGCACCAACACACACACACACCCATATATATA [CACACA_site2204],8.84 ± 0.4
11,GTTGGGTAATTCGTAACACACATAAAATATATATAA [CACACA_site3986],8.62 ± 0.42
12,TTCTTTATATAAACAAGTACATATAAAATACATATA [XGTACX_site8036],8.45 ± 0.59
13,AAGTTAATGTTTTGCGCACACTTCTTTTTAATATAA [CACACA_site3938],9.13 ± 0.41
14,ACAGCTCTAGGACATGCATGTTATATAGAAAAAGAG [TGCATGCA_site703],9.59 ± 0.32
15,TTCATTAAAGTTATTACACACAGTTCTTCAACCAAA [CACACA_site7613],8.48 ± 0.35
16,AAATACATATTTAGAAGTACATTTATACATTTAATA [XGTACX_site8871],8.28 ± 0.27
17,ATTTTTTCTTATAAAAAAGAAAAAGAAAAAGAAAAA [CACACA_negctrl_site1216],8.64 ± 0.64
18,TATATATTAAGATGCACACACAAGAAGTAATTATAA [CACACA_site5726],8.93 ± 0.35
19,GAATCACTAATTTTTTTACACACCACAATTTAATTT [CACACA_site8311],8.94 ± 0.47
20,TTTCGAATTAAAGCATGTGAAAATTTTCAAAAAATA [XGTACX_negctrl_site577],8.55 ± 0.52
21,ATAATAATATAATATTCACACAATTGAAATAGTGTA [CACACA_site6083],8.11 ± 0.3
22,ACAAAACATAATTGTTGTACAAAAAGAATTATATAT [XGTACX_site8422],9.38 ± 0.64
23,AAATAAAAATTACAAGCATGCATTTTCCTATTTGCA [TGCATGCA_site861],8.56 ± 0.46

row,Sequence,gcPBM binding intensity (ln)
1,GTGTAAAAATTAAAGTGTACACATATATATATATAT [XGTACX_site2251],10.2 ± 0.31
2,TTTAAATATATTAATACACACACGATATGTACAAAA [CACACA_site539],8.62 ± 0.33
3,AAAAAATTTTGAAATTGTACATATATAAAAAATATA [XGTACX_site2629],8.38 ± 0.35
4,GAATAAATTGTATTGTGTACATATAAAAGCATCTAA [XGTACX_site8271],8.69 ± 0.37
5,TATAAATATACAAAGGTGCATAAAAAGTTATGTTTT [GTGCAC_site9832],8.85 ± 0.4
6,TTTCTATAATATTCTACACACCAACAACAAACATAT [CACACA_site6409],8.89 ± 0.47
7,ATGTAGAAGTAATGCACACATATGTATATATATATA [CACACA_site2494],10.1 ± 0.38
8,GGTCTTTTTATGATATGTACTTATATAATATTATAT [XGTACX_site6458],9.05 ± 0.33
9,AACAGCATGAAGTAAAGTACTAGTTTTATTTATTTA [XGTACX_site1116],8.14 ± 0.49
10,ATAATATATAATATAGTGCATTATTTATTAATTAAT [GTGCAC_site9852],8.56 ± 0.085
11,AGGAAATTTTTTTTTTTTTTTTTTTTTTTTTTTTAC [TGCATGCA_negctrl_site170],7.86 ± 0.73
12,CAAAATATTATGAATTGTACATATTTTAAAACGTTT [XGTACX_site1614],8.46 ± 0.35
13,ATAGATGTCTTCATATGTACATAAATTCAAGTATAT [XGTACX_site7492],8.63 ± 0.47
14,TGATTATAAAAGTAGGTGCTACAAAAATTACACATT [GTGCAC_site9530],8.45 ± 0.39
15,TCCTAATGGTTTAATTGTACAAAAAAAAAAAATATA [XGTACX_site322],8.44 ± 0.5
16,TGATAAGTATACTAAAGTACATGAAAAATAACTTCC [XGTACX_site6908],8.55 ± 0.35
17,TGGATGAGGACATACACACACACATAAGTTGATACA [CACACA_site3423],8.73 ± 0.45
18,TTATATTTTAAGAAATGTACATGATATAATTATCAA [XGTACX_site8693],8.39 ± 0.35
19,TTTTTTTTAATTTTCTGTACAAATTTATATATACTA [XGTACX_site4251],8.68 ± 0.47
20,TATTTCTTATGAAGGACATGCAATATTATTTATCTC [TGCATGCA_site683],8.49 ± 0.25
